From PubChem BioAssay AID1159614 (National Center for Advancing Translational Sciences (NCATS), 2016) come the findings set out here.

The structures appear in SMILES notation. Out of some 45,000 compounds screened, about 65 (0.1%) were called active. The call rests on the fitted dose curve; in most records, active means well fitted activation curve with a large enough effect; inconclusive means small, poorly fitted or top-dose-only effect; inactive means no such curve, though single readings can be large or run the other way. The list shows a part of the results.

The experiment deals with Galactocerebrosidase (Homo sapiens) (UniProt P54803). The experiment can be described thus: A Novel Cell-Based Assay to Identify Small Molecules for B -Galactocerebrosidase. Further: 0% is about no effect; nearly all actives have a fitted effect of over 65% in size. As to conditions: 145M-Twi-hGALC-G270D cells, HMU-beta-Gal fluorescence, 48 h; series mostly up to 57.5 µM; activation: at the top concentration. A digest of the protocol: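 qHTS, 1536-well; 145M-Twi-hGALC-G270D cells (WT line also made) in DMEM/F12 + 10% FBS; compound incubation on live cells; HMU-β-gal 0.1 mM final, pH 5.2, NaTC; carbonate stop; fluorescence increase = enhanced residual activity.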
Sequence of UniProt P54803 (P54803 whole entry, looked up): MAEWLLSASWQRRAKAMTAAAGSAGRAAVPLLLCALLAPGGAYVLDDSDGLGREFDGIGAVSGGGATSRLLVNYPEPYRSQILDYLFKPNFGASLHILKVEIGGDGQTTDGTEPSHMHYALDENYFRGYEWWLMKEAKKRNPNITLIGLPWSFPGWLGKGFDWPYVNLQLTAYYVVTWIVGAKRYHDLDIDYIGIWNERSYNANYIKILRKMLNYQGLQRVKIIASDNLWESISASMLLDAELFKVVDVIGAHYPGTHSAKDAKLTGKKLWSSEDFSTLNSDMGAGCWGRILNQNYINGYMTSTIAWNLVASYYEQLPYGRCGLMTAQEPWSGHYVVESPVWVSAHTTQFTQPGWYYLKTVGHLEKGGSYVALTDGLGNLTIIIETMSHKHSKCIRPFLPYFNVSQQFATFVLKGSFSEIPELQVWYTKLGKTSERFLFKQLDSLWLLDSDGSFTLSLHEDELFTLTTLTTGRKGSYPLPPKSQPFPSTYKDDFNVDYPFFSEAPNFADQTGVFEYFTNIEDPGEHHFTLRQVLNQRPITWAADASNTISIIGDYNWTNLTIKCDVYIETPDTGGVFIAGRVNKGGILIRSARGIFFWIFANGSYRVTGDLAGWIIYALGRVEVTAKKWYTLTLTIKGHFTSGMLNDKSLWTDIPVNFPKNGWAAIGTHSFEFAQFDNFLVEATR
With `COc1ccc(CNS(=O)(=O)c2cc3c4c(c2)CCN4C(=O)CC3)cc1`, the “activation” value was inactive: -0.723%. To `Cc1ccc(NC(=O)CSc2nccn2Cc2ccco2)cc1Cl` belongs inactive: -7.26%; to `O=c1ccc2cc(S(=O)(=O)NCc3ccc(Br)cc3)ccc2[nH]1`, inactive: -8.42%; to `COc1cccc(NC(=O)CSCc2cc(=O)c3ccc(C)c(C)c3[nH]2)c1`, inactive: -6.44%. In the case of `CCC(=O)N1CCc2cc(S(=O)(=O)NC(CC(C)C)C(=O)NCCc3cccc(C)c3)ccc21` (stereo not drawn), the “activation” value was inactive: -9.65%.

Regarding `COc1ccc(OC)c(CNS(=O)(=O)c2ccc3[nH]c4c(c3c2)CCCCC4)c1`, the “activation” value is inactive: -39.7%.

Consider `Cn1c(=O)c2c(n3c4ccccc4nc13)NC(=O)CC2c1cccc(F)c1` (stereo not drawn), for which the “activation” value was inactive: -5.42%. The result for `O=C(CCCCn1c(=O)c2ccccc2n(Cc2ccccc2Cl)c1=O)NCc1ccc2c(c1)OCO2` reads inactive: -6.67%; that for `CCNc1ccc(-c2nc(-c3ccccn3)no2)cc1[N+](=O)[O-]`, inactive: 0.338%; that for `COc1ccc(-c2onc(C)c2C)cc1S(=O)(=O)NCC(C)c1ccccc1` (stereo not drawn), inactive: -1.58%. Consider `Cc1cc(NC(=O)COCc2cc(-c3ccc(F)cc3)on2)ccc1Br`, for which the “activation” value is inactive: -11.8%. The result for `CC(C)Oc1cccc(C(=O)Nc2ccc3oc(-c4cccc(Cl)c4)nc3c2)c1` reads inactive: -10.1%; that for `CCOc1ccc(CNC(=O)c2ccc3nc(CC)c(CC)nc3c2)cc1`, inactive: -21.8%; that for `COc1cccc(N2CCN(C(=O)CCCn3c(=O)[nH]c4ccc(Br)cc4c3=O)CC2)c1`, inactive: -11.6%. With `Cc1ccc(Nc2c(-c3ccc(Cl)cc3)nc3sccn23)c(C)c1`, the “activation” value was inactive: -6.24%.

Turning to `Cc1ccc(C)c(NC(=O)N2CCC(CN3CCOCC3)CC2)c1`, the “activation” value was inactive: -2.35%. To `COC(=O)C1=C(C)NC(C)=C(C(=O)OCC(C)C)C1c1ccccc1[N+](=O)[O-]` (stereo not drawn) belongs inactive: -12.7%; to `CCOc1ccc(CCNS(=O)(=O)c2c(C)nc3scc(C)n3c2=O)cc1OCC`, inactive: -15.9%; to `CCCn1c2ccccc2c2cnn(CC(=O)N3CCN(c4ccccc4F)CC3)c(=O)c21`, inactive: -3.23%. To `CC(=O)N1CCCc2cc(S(=O)(=O)NCc3cccc(C)c3)ccc21` belongs inactive: -16.7%; to `CCn1c(=O)c2cc(C(=O)NCCCOC)sc2c2ccccc21`, inactive: -0.0299%. `Cc1cc(C)n(-c2nc3ccccc3nc2Nc2ccc(Cl)cc2Cl)n1`: the “activation” value was inactive: 3.83%. On to `O=c1c2cnn(-c3ccc(F)cc3)c2ncn1Cc1cccc(Cl)c1`, for which the “activation” value was inactive: -12%. To `CCCN(CCC)C(=O)Cn1nnc2sc(-c3ccccc3)cc2c1=O` belongs inactive: -7.58%; to `COc1ccc(NC(=O)Cn2c(=O)n(-c3ccccc3)c(=O)c3c4c(sc32)CCCC4)c(OC)c1`, inactive: -1.4%. In the case of `Cc1ccc(CNC(=O)c2nc(SCc3ccc(F)cc3)ncc2Cl)cc1`, the “activation” value was inactive: -17.3%. As for `CC(C)Oc1ccc(CNS(=O)(=O)c2ccc3c(c2)C(C)(C)C(=O)N3C)cc1`, the “activation” value is inactive: -11.6%.

As to `Cc1ccc(NC(=O)CSc2ncc(S(=O)(=O)c3ccc(C(C)C)cc3)c(=O)[nH]2)cc1C`, the “activation” value is inactive: 7.44%. As to `Cc1ccc(C(=O)c2cn(Cc3cccc(C)c3)c3nc(C)ccc3c2=O)cc1`, the “activation” value was inactive: -9.71%. The result for `Cc1nn2c(=O)cc(COC(=O)c3cccc(NC(=O)COc4ccccc4Cl)c3)nc2s1` reads inactive: -4.56%. The result for `COC(=O)c1cc(S(=O)(=O)N2CCN(c3ccc(OC)cc3)CC2)c[nH]1` reads inactive: -0.224%. In the case of `COc1ccc(S(=O)(=O)n2nc(C)c(S(=O)(=O)N3CCCCCC3)c2C)cc1`, the “activation” value was inactive: -2.43%.

`Cc1cc(C)n2c(Nc3ccc4c(c3)OCCO4)c(-c3ccc(Cl)cc3)nc2n1`: the “activation” value was inactive: -6.39%.

For `O=C(CCNS(=O)(=O)c1ccc2c(c1)CCCC(=O)N2)NCc1ccccc1Cl`, the “activation” value is inactive: -11.8%.

Take `CCC(=O)N1CCc2cc(CNC(=O)Nc3ccccc3Cl)ccc21`: the “activation” value was inactive: -9.93%. The result for `CCOc1cc(C#N)c(NC(=O)c2cccc(S(=O)(=O)N3CCOCC3)c2)cc1OCC` reads inactive: -13.3%. For the compound `COc1cccc(NC(=O)CN(C)S(=O)(=O)c2cccs2)c1`, the “activation” value was inactive: -5.56%.

On to `CC(=O)Nc1ccc(OCCOCCOc2ccc(NC(C)=O)cc2)cc1`, for which the “activation” value is inactive: -8.52%. To `COc1cc(CNC(=O)CSCc2nc3cccnc3n2C2CCCCC2)cc(OC)c1OC` belongs inactive: 13.7%.

Consider `Cc1ccc(C)c(NC(=O)CCc2nc(-c3ccc(C(C)(C)C)cc3)no2)c1`, for which the “activation” value was inactive: -3.23%. To `Cc1ccc(C(=O)Nc2ccc3c(c2)N(C)C(=O)c2ccccc2S3)cc1` belongs inactive: -9.31%; to `CCc1ccc(NC(=O)c2cc(S(=O)(=O)N3CCCC3)ccc2F)cc1`, inactive: -8.68%. The result for `COc1ccc(CCNC(=O)c2cc(C)nc3c2c(C)nn3-c2ccccc2)cc1OC` reads inactive: -20.5%; that for `CCCS(=O)(=O)N1CC(=O)N(c2ccccc2F)C(C)(C(=O)NC2CCCCCC2)C1` (stereo not drawn), inactive: -10.1%; that for `CCC1CCCCN1CCCNC(=O)c1ccc2c(c1)N(Cc1ccccc1F)C(=O)c1ccccc1S2(=O)=O` (stereo not drawn), inactive: -16.7%.

Take `O=C(Nc1ccc([N+](=O)[O-])cc1)Nc1ccc([N+](=O)[O-])cc1`: the “activation” value is inactive: -20.2%. To `CC(C(=O)NCc1ccccc1)N1Cc2ccccc2C1=O` (stereo not drawn) belongs inactive: -8.14%; to `CC1CCN(C(=O)CSc2nc(-c3ccc(C(C)C)cc3)no2)CC1`, inactive: 0.391%; to `COc1ccccc1N1CCN(C(=O)CSc2nc3ccccc3nc2Cc2ccc(F)cc2)CC1`, inactive: -2.03%.

In the case of `COc1ccccc1Cn1c(CNS(=O)(=O)c2ccc3c(c2)CCCC3)nc2cccnc21`, the “activation” value is inactive: -6.92%. For `Cc1csc2nc(COc3ccc(NC(=O)COc4ccccc4F)cc3)cc(=O)n12`, the “activation” value is inactive: -3.41%. Turning to `CC(C)(C)C1CCc2c(sc(NC(=O)Cn3nnc(-c4cccc(C(F)(F)F)c4)n3)c2C#N)C1` (stereo not drawn), the “activation” value is inactive: -14%. Turning to `CCCCCOC(=O)CSc1nc2sc3c(c2c(=O)n1Cc1ccccc1)CC(C)(C)OC3`, the “activation” value was inactive: -6.35%. Turning to `Cn1c(CNC(=O)CSc2n[nH]c(-c3ccccc3)n2)nc2ccccc21`, the “activation” value is inactive: -4.02%. To `O=C(Cn1c(=O)n(-c2ccc(Cl)cc2)c(=O)c2c3c(sc21)CCC3)c1ccc(F)cc1` belongs inactive: -14.9%. The result for `CCN1CCSc2ccc(C(=O)NCc3cccc(F)c3)cc21` reads inactive: -10.8%; that for `CCCCc1nn2c(=O)cc(COC(=O)c3ccc(NC(=O)c4cccs4)cc3)nc2s1`, inactive: -7.64%. The result for `Fc1ccc(Nc2nc3nonc3nc2Nc2cccc(C(F)(F)F)c2)cc1` reads inactive: -21.9%. With `O=[N+]([O-])c1cc(-c2nc(-c3ccccc3)no2)ccc1N1CCCC1`, the “activation” value was inactive: 2.43%. The result for `Cc1ccccc1NCc1cccn1-c1nnc(N2CCOCC2)s1` reads inactive: -22.2%.

For `NCCCC(N)(C(=O)O)C(F)F` (stereo not drawn), the “activation” value was inactive: -15.7%.

`CC(C)OCCCn1c(SCC(=O)Nc2ccc(F)cc2)nc2c(sc3ccccc32)c1=O`: the “activation” value is inactive: -7.37%. The result for `CCC(Sc1nc2c(sc3ccccc32)c(=O)n1CCCC(=O)NC1CCCC1)C(=O)Nc1cccc(OC)c1` (stereo not drawn) reads inactive: -8.61%. On to `CC(C)CC(=O)N1CC(=O)Nc2ccc(F)cc2C1c1ccccc1` (stereo not drawn), for which the “activation” value was inactive: -9.66%. As to `Cc1ccc(NC(=O)CSc2nnc3[nH]c(=O)cc(C)n23)cc1Cl`, the “activation” value was inactive: -7.3%. Take `COc1cccc(CNC(=O)CCc2nnc3n(CC(C)C)c(=O)c4ccccc4n23)c1`: the “activation” value is inactive: -4.59%. As to `Cc1sc2c(c1C)c(=O)n(-c1ccccc1)c(=O)n2CC(=O)c1ccc(Cl)cc1`, the “activation” value was inactive: 4.12%. On to `CCC(=O)N1c2ccccc2CC1C(=O)NCCN1CCN(c2cccc(C)c2C)CC1` (stereo not drawn), for which the “activation” value was inactive: -2.08%. `Cc1ccc(-c2nc3ccccc3o2)cc1NC(=O)c1cccc2c(Cl)cccc12`: the “activation” value was inactive: -29.8%. The result for `Cc1nc2sccn2c(=O)c1S(=O)(=O)Nc1ccc(N2CCN(S(C)(=O)=O)CC2)cc1` reads inactive: -17.2%; that for `Cc1cccc(Nc2nc(-c3ccccc3)c3cc(C)ccc3n2)c1`, inactive: 1.22%.

As to `O=C(CSc1nc(-c2ccccc2)[nH]c1-c1ccccc1)Nc1ccc2c(c1)OCO2`, the “activation” value was inactive: -16.2%. The result for `CCCc1ccc(OC(=O)CSc2nnc(-c3cccs3)o2)cc1` reads inactive: -13.7%; that for `CCS(=O)(=O)N1CCc2cc(C(=O)Nc3cccc(C)c3C)ccc21`, inactive: -43.9%. In the case of `CCOc1ccc(-c2cc3c(=O)n(CC(=O)NCc4ccc(OC)cc4)ccn3n2)cc1`, the “activation” value is inactive: -15.5%.

Take `CSc1ccc(CCNC(=O)CCn2c(=O)c3cccn3c3cccnc32)cc1`: the “activation” value is inactive: 0.833%.

As to `Cc1ccc(OCCSc2nc3ccc(NC(=O)c4ccc5c(c4)OCO5)cc3s2)cc1`, the “activation” value is inactive: -10.8%. The result for `CCOC(=O)C1CCCN(C(=O)c2c(C)nn(-c3ccc(F)cc3)c2-n2cccc2)C1` (stereo not drawn) reads inactive: -4.68%; that for `COc1ccc(NC(=O)c2cc3c(=O)n(C)c4ccccc4c3s2)cc1Cl`, inactive: -4.76%. As to `O=C(Nc1ccc(F)cc1)C1CCN(c2nc3ccccc3n3cccc23)CC1`, the “activation” value is inactive: -16.2%.

`Cc1nc(-n2nc(C)c(Cc3ccccc3Cl)c2C)sc1C(=O)N1CCC(C)CC1`: the “activation” value was inactive: -16.2%. On to `CCOC(=O)C(CC)Sc1ncnc2sc3c(c12)CCCC3` (stereo not drawn), for which the “activation” value was inactive: -17.9%. Consider `O=C(CCn1cccn1)NCc1ccc(Cl)cc1`, for which the “activation” value is inactive: -12.6%.

For the compound `O=C(NC1(C(F)(F)F)NC(=O)N(CCc2ccccc2)C1=O)c1ccccc1Cl` (stereo not drawn), the “activation” value is inactive: -16.3%. For `Cc1cccc(NC(=O)CSc2nnc(N)s2)c1`, the “activation” value was inactive: -17%. To `Cc1cccc(-n2ncc(C(=O)N3CCc4ccccc4C3)c2C2CCN(C(=O)OC(C)(C)C)CC2)c1` belongs inactive: 15.6%.

As to `Cc1oc2ccc(O)c(CN3CCCCCC3)c2c1C(=O)Nc1cccc(Cl)c1C`, the “activation” value is inactive: -18.2%. `O=C(NCCc1ccc(Cl)cc1)C(=O)NCC(c1ccco1)S(=O)(=O)c1cccs1` (stereo not drawn): the “activation” value is inactive: -4.93%.

For `COC(=O)c1nnn(CC(=O)Nc2cc(F)ccc2F)c1C(=O)OC`, the “activation” value is inactive: -11.2%.

Take `CSc1ncc2c(n1)-c1ccccc1N(Cc1ccc(F)cc1)S2(=O)=O`: the “activation” value is inactive: -5.85%. The result for `Cc1c(-c2nsc(NC(=O)c3cccs3)n2)nnn1-c1ccc(Cl)cc1` reads inactive: -10%. For the compound `N#Cc1c[nH]n2c(NC3CCCCC3)c(-c3ccccc3F)nc12`, the “activation” value was inactive: -16.2%. The result for `Cc1nn2c(=O)cc(COC(=O)c3cccc(NC(=O)COc4ccc(C)c(C)c4)c3)nc2s1` reads inactive: -10.9%; that for `CCN(CC)CCCNC(=O)c1ccc2c(c1)N(Cc1c(F)cccc1Cl)C(=O)c1ccccc1S2`, inactive: -1.55%.

Consider `O=C(C1CCN(S(=O)(=O)c2cccs2)CC1)N1CCN(c2cccc(Cl)c2)CC1`, for which the “activation” value is inactive: -12.2%. To `CCSc1ncc(Cl)c(C(=O)N(Cc2ccccc2Cl)C2CCS(=O)(=O)C2)n1` (stereo not drawn) belongs inactive: -15.6%; to `Cc1ccc(CN2C(=O)c3ccccc3Sc3ccc(C(=O)NCc4ccco4)cc32)cc1`, inactive: 1.59%. As to `COc1ccc(C(=O)NCC(c2ccc3c(c2)OCO3)N2CCOCC2)cc1` (stereo not drawn), the “activation” value was inactive: -1.7%.
